The source gives no read counts; variants with many changes may rest on few reads.
B1: LINE1-full (parent)
chain: UACGUAGGUGGUUUUCCCCUGAUAGUGCUAAGGGGGCCUGGAAGUUUGGACUGGGCAGAGCUCAACACAGCGUGGCAAAGUGGCUGUGGCUAGACUGCCUCUCUGGAUUCCUCGUCACUCAGCAGGGCAUCUCUGAGAGAAAUGCC

Variants of: B1
Assay: self-cleavage, relative activity (ratio to wild type); higher = more cleavage; in vitro, sequencing; the parent is a self-cleaving ribozyme

Row | Variant | self-cleavage
1 | G74A U130C A140G | 1.67
2 | U13A A42G U62C U96C G105A | 0
3 | U5C C19A A43U A78G | 0.69
4 | U9C A124G A142G | 1.31
5 | A22G C99U U119G | 0.81
6 | A30G U62A A69U C113U | 0.1
7 | A50G U130C U134G | 2.63
8 | C17U A107U G137A | 0.71
9 | U9G U12C U102C G144A C146U | 0.71
10 | U12C U14C U91A G114A A129G U132C A141G | 0.74
11 | A64U A124G U132C | 0.18
12 | G8A U112C A124G A136G | 0.77
13 | A30U U39C U45C A78U A141G | 0.59
14 | U45C U108A A117C U132A | 2.16
15 | U15C U23A A31G U73G U104C | 0.35
16 | A59G U100C G144A | 0.06
17 | A6G U13C U62C | 0.35
18 | U15C A24C U46C | 1.31
19 | C3U U14C U85C A121C | 0.33
20 | A57G A59G U115A A138G | 0
21 | U46C U81C U130C | 1.53
22 | U14C G60U C71U G80A | 0.06
23 | U46C U96C U109A | 0.11
24 | A79U U81G G82A U91A C103A A121G | 1.22

Row | Variant | self-cleavage
25 | U23A U26A A129G A142G | 1.7
26 | U73A A78U A107G A121U | 2.9
27 | U52A U85A U109A C111U | 0.1
28 | C17U G54C G88C C103A A117G A140G U143C | 0.06
29 | A22G U45C U85G C98A | 0.08
30 | U26C A94G A140G | 0.13
31 | U9A G34A A107G | 1.47
32 | A6U A69G U96C | 0
33 | U9C A57G A117G | 0.46
34 | U14C A24U U46G A77U U102C | 1.25
35 | U12C G25U U39A C84U | 0.25
36 | U39A U91A A107G A129G | 1.01
37 | U45C A69G G72A G74A | 0.3
38 | A107G C131U A138G | 1.84
39 | A77U G97A U100C U130A | 0.14
40 | U15A A107G U108C | 0.92
41 | U20A A43G U85C | 0.25
42 | A30U U100C A121U A140U | 2.83
43 | U12C U47A A57U | 0.32
44 | U47A U96A A136G | 0.05
45 | A24C A64U G144A | 0.7
46 | A43C A59U A121U | 0.33
47 | U12C U14C G27A U62C A69G | 0.2
48 | U15C C76U U112C A141U | 2.12

Row | Variant | self-cleavage
49 | U14C U15C A94G | 1.06
50 | U14C A43G G86A | 0.13
51 | A57G U81A A138G | 1.93
52 | U9C C71U U96C | 0.08
53 | U15C U47A U112C | 0.94
54 | U26C U62C A69U G83A | 0.02
55 | A43G A65G U96A A141G | 0
56 | U26C U130C U134A | 1.42
57 | A57G A78G U115C | 2.12
58 | G32A U39C U52G A94U A121G | 1.59
59 | U13C A77G U85C A142G | 0.25
60 | C3U G35A U96A | 0.14
61 | G40U U85A U143C | 0.06
62 | A22U U85A A142G | 0.07
63 | U14C A42G A69G | 1.64
64 | A69G U73C A138G | 0.53
65 | G8C U47C A94G C131A | 0.56
66 | G48A A78G A142G | 0.74
67 | U1C U52C U81C U109C U134A | 0
68 | G35A C61U C131U | 0.01
69 | U26A C123U U143C | 1.24
70 | U29C U85A U112C | 0.18
71 | U9A U15C U112C | 0.69
72 | U96C A117U A138G | 0.2

Row | Variant | self-cleavage
73 | U15C U20C U45A U46A U102A | 1.64
74 | A24G G88A U115A | 0.07
75 | U9C A129G A142U | 1.86
76 | A129G A142G U143A | 1.16
77 | A94G U100C A140G A141G | 0
78 | U15C C113U G122A | 1.84
79 | U9G U14C U112C A140G | 0
80 | U115G A124U U132C | 2.45
81 | A57U U62C U73A A107G U143C | 0
82 | A57U U102C C116U U119G U130G A136G | 0
83 | U15A G35A U73A U112C | 0.96
84 | G7A U52C A138G | 1.65
85 | A2U A43G U134C | 0.74
86 | U45C A67G A141G | 1.02
87 | U9C A57G U62C U87C G89A U112C | 0
88 | U1C U13C A59U A65G | 0
89 | U115C U134C U143A | 1.62
90 | C19G C110A U119C U132C A141G | 1.69
91 | U14C A121G A141G | 1.38
92 | U29A U115C U143C | 0.36
93 | U13C A22G U45C A124G | 1.2
94 | U102A A129G A141G C145U | 0.67
95 | A65U A67G U108C | 0.25
96 | A67U U81G A94U U104C A129G U130A U134A | 0

Row | Variant | self-cleavage
97 | U14C A65G U143A | 0
98 | U12C U14C U45C C90U A129G | 0.17
99 | U62C U73A A141G | 0.01
100 | U20C C84U U100C | 0.27
101 | U5C G35U C120A | 1.03
102 | A24U C110A U119C | 1.18
103 | U13C U15C G27A A77U U112C | 0.99
104 | A50G A64U A136U | 0.62
105 | G48A A57G U102C | 0.03
106 | A2G U13C G75U | 0.78
107 | U9C U47G A79G | 1.38
108 | A22G G114U C128A U130C | 1.12
109 | G44U G53C A64C A65U | 0.11
110 | U26C G40A U119C | 1.97
111 | U14A C28U A50G A141U | 0.95
112 | U9A U23A A107G U108A | 0.87
113 | U39A A64G A69G | 0.21
114 | A67G U130C A141G | 0.16
115 | U46C A77G A92G | 0
116 | U5C U52C A92G A142G | 0.22
117 | U5C A94G U108C | 1.15
118 | U15C A31G C76U A107U U115C A141G | 2.84
119 | U13C U87C U115G | 0.18
120 | U12G A43G U46C A59G | 0

Row | Variant | self-cleavage
121 | C16U A43C U62C U73A | 0.09
122 | U5A A50G U134A | 0.36
123 | U12C A79U U81G U100C | 1.15
124 | A50U U52A U81C | 0.73
125 | A2G A92G A129G | 0
126 | U12C A22C U115C U143C | 2.51
127 | A57C U109A U119A | 0.02
128 | A50U U108G U115C | 1.62
129 | A2G U62C G86A U108C U132C | 0.08
130 | U46A G48A U62C G75C U85A | 0.01
131 | A50G U62C A138U | 0
132 | U20A U73C A136G | 0
133 | G11A G74C U100A | 0.59
134 | G74A A78G U102C U104A | 0.87
135 | C16A A22G A141G | 1.02
136 | A24G G48C U73A | 0.45
137 | G7U U20C U73C A117G | 0.84
138 | A78G A121C A136G | 2.04
139 | U45C C63U A77G A94U G105A | 0.09
140 | U20C A78G U134C | 1.4
141 | U13C U23C U26A A77G A94U U130C | 1.67
142 | U47G U62C A69G C120A | 0.06
143 | U26A U96C A138G | 0.28
144 | A42G A65G U115C | 0

Row | Variant | self-cleavage
145 | U5C U39A A107U | 0.25
146 | U14C A43G A121G | 2.06
147 | A69U A78G A117U | 0.07
148 | C37G U96C U112C | 0.09
149 | C38U G40A A77U U85C A124G | 0.07
150 | A59G U104A A124G | 0.04
151 | U62A U85C A107G | 0
152 | U47G U112C A140G | 1.07
153 | G70U U100C U102C C120U U143C | 0.16
154 | C37U U52C U62A A69G A107G U130C A138G | 0.24
155 | G40A U130C A141G | 0.8
156 | U26C C28U U46C G74A U91C A136G | 0.35
157 | A30G U52A U112A | 1.02
158 | U12C U46A U134C | 1.65
159 | U9A G35A U85A A121G | 0.14
160 | U9C A57G A64G A117U | 0.55
161 | U14C G36U C37G U39C | 1.78
162 | A59G A78G U85C | 0.09
163 | A78G U81C U85A G122C | 0.03
164 | U1C G32A U62C | 0.06
165 | U20A U26A U62C | 0.12
166 | A50U U62G U132A | 0.09
167 | U15C G34A A57G U96C A140G | 0.23
